From the supplement of paper PMC8728848
This is one part of the list.

How the values were obtained:
Assay in all cases: glycan array binding signal (z-score within array); higher = stronger binding
Settings in all cases: glycan notation: IUPAC condensed, linker removed
[1] = molecular target: Gal(b1-4)GlcNAc(b1-3)Gal(b1-4)GlcNAc(b1-3)[Gal(b1-4)GlcNAc(b1-3)Gal(b1-4)GlcNAc(b1-6)]GalNAc
Summary of the method: (§1)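 Arrays were curated from the Consortium for Functional Glycomics database, 3228 in total, and kept only where the protein sequence was available. Binding is expressed as a within-array Z-score. This score was averaged across arrays of the same protein sequence at different concentrations or buffers and across linkers, and negative values can be read as non-binding.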

[2] = molecular target: Gal(b1-4)GlcNAc(b1-3)Gal(b1-4)GlcNAc(b1-6)[Gal(b1-3)]GalNAc
Summary of the method: as §1

[3] = molecular target: Gal(b1-4)GlcNAc(b1-3)Gal(b1-4)[Fuc(a1-3)]GlcNAc(b1-3)Gal(b1-4)[Fuc(a1-3)]GlcNAc
Summary of the method: as §1

[4] = molecular target: Gal(b1-4)GlcNAc(b1-3)GalNAc
Summary of the method: as §1

[5] = molecular target: Gal(b1-4)GlcNAc(b1-3)[Fuc(a1-3)GlcNAc(b1-6)]Gal(b1-4)Glc
Summary of the method: as §1

[6] = molecular target: Gal(b1-4)GlcNAc(b1-3)[Gal(b1-4)GlcNAc(b1-6)]Gal(b1-4)GlcNAc
Summary of the method: as §1

[7] = molecular target: Gal(b1-4)GlcNAc(b1-3)[GlcNAc(b1-6)]Gal(b1-4)GlcNAc
Summary of the method: as §1

[8] = molecular target: Gal(b1-4)GlcNAc(b1-6)Gal(b1-4)GlcNAc
Summary of the method: as §1

[9] = molecular target: Gal(b1-4)GlcNAc(b1-6)GalNAc
Summary of the method: as §1

[10] = molecular target: Gal(b1-4)GlcNAc(b1-6)[Gal(b1-3)]GalNAc
Summary of the method: as §1

[11] = molecular target: Gal(b1-4)GlcNAc(b1-6)[Gal(b1-4)GlcNAc(b1-3)]GalNAc
Summary of the method: as §1

Gal(b1-4)GlcNAc6P = molecular target: Gal(b1-4)GlcNAc6P
Summary of the method: as §1

Gal(b1-6)Gal = molecular target: Gal(b1-6)Gal
Summary of the method: as §1

Gal3S(b1-3)GalNAc = molecular target: Gal3S(b1-3)GalNAc
Summary of the method: as §1

Gal3S(b1-3)GlcNAc = molecular target: Gal3S(b1-3)GlcNAc
Summary of the method: as §1

[12] = molecular target: Gal3S(b1-3)[Fuc(a1-4)]GlcNAc
Summary of the method: as §1

Gal3S(b1-4)Glc = molecular target: Gal3S(b1-4)Glc
Summary of the method: as §1

Gal3S(b1-4)Glc6S = molecular target: Gal3S(b1-4)Glc6S
Summary of the method: as §1

Gal3S(b1-4)GlcNAc = molecular target: Gal3S(b1-4)GlcNAc
Summary of the method: as §1

[13] = molecular target: Gal3S(b1-4)[Fuc(a1-3)]Glc6S
Summary of the method: as §1

[14] = molecular target: Gal3S(b1-4)[Fuc(a1-3)]GlcNAc
Summary of the method: as §1

[15] = molecular target: Gal3S(b1-4)[Fuc(a1-3)]GlcNAc6S
Summary of the method: as §1

Gal3S4S(b1-4)GlcNAc = molecular target: Gal3S4S(b1-4)GlcNAc
Summary of the method: as §1

Gal3S6S(b1-4)GlcNAc = molecular target: Gal3S6S(b1-4)GlcNAc
Summary of the method: as §1

Gal3S6S(b1-4)GlcNAc6S = molecular target: Gal3S6S(b1-4)GlcNAc6S
Summary of the method: as §1

Gal4S(b1-4)GlcNAc = molecular target: Gal4S(b1-4)GlcNAc
Summary of the method: as §1

Gal4S6S(b1-4)GlcNAc = molecular target: Gal4S6S(b1-4)GlcNAc
Summary of the method: as §1

Gal6P(b1-4)GlcNAc = molecular target: Gal6P(b1-4)GlcNAc
Summary of the method: as §1

Gal6S(b1-3)GlcNAc = molecular target: Gal6S(b1-3)GlcNAc
Summary of the method: as §1

Gal6S(b1-3)GlcNAc6S = molecular target: Gal6S(b1-3)GlcNAc6S
Summary of the method: as §1

Gal6S(b1-4)Glc = molecular target: Gal6S(b1-4)Glc
Summary of the method: as §1

Gal6S(b1-4)Glc6S = molecular target: Gal6S(b1-4)Glc6S
Summary of the method: as §1

Gal6S(b1-4)GlcNAc = molecular target: Gal6S(b1-4)GlcNAc
Summary of the method: as §1

Gal6S(b1-4)GlcNAc6S = molecular target: Gal6S(b1-4)GlcNAc6S
Summary of the method: as §1

GalNAc(a1-3)Gal = molecular target: GalNAc(a1-3)Gal
Summary of the method: as §1

GalNAc(a1-3)GalNAc = molecular target: GalNAc(a1-3)GalNAc
Summary of the method: as §1

[16] = molecular target: GalNAc(a1-3)GalNAc(b1-3)Gal(a1-4)Gal(b1-4)Glc
Summary of the method: as §1

B1: AT1G73650(15) (Arabidopsis thaliana), F4HRY1 (protein)
chain: MGTVLDSHFLALTAIVTVIYQFIFFVITALFKFDQVTDFAGSTNFVILAVLTLVLKASWHFRQIVLTLLVVVWGLRLGIFLLMETRILQWGEDRRFDEQRGNIVRLIIFWTLQAVWVWTVSLPLTLVNASDGGGSLKPADVIGWTMETWVFGFLIEAAADQQKLSFKNSPENRGKWCDVGVWKYSRHPNYFGEMETLLWWGIFVAASPVLEGAEYLVIFGPLFLTLLLLFVSGIPLLEASADKKHGNSGAYRSYKKTTSPLILFPRGVYGNLPGWFKTVFLFEFPFYSRNLPQEGRLQNSKEKEVKDD
[1]
  glycan array binding signal (z-score): -0.543
[2]
  glycan array binding signal (z-score): 0.182
[3]
  glycan array binding signal (z-score): -0.65
[4]
  glycan array binding signal (z-score): -0.577
[5]
  glycan array binding signal (z-score): -0.732
[6]
  glycan array binding signal (z-score): -0.463
[7]
  glycan array binding signal (z-score): -0.319
[8]
  glycan array binding signal (z-score): -0.461
[9]
  glycan array binding signal (z-score): 1.54
[10]
  glycan array binding signal (z-score): 0.371
[11]
  glycan array binding signal (z-score): -0.029
Gal(b1-4)GlcNAc6P
  glycan array binding signal (z-score): 0.323
Gal(b1-6)Gal
  glycan array binding signal (z-score): -0.043
Gal3S(b1-3)GalNAc
  glycan array binding signal (z-score): -0.498
Gal3S(b1-3)GlcNAc
  glycan array binding signal (z-score): 0.044
[12]
  glycan array binding signal (z-score): -0.032
Gal3S(b1-4)Glc
  glycan array binding signal (z-score): -0.122
Gal3S(b1-4)Glc6S
  glycan array binding signal (z-score): 0.9
Gal3S(b1-4)GlcNAc
  glycan array binding signal (z-score): -0.425
[13]
  glycan array binding signal (z-score): 0.491
[14]
  glycan array binding signal (z-score): 0.451
[15]
  glycan array binding signal (z-score): 1.88
Gal3S4S(b1-4)GlcNAc
  glycan array binding signal (z-score): 1.83
Gal3S6S(b1-4)GlcNAc
  glycan array binding signal (z-score): -0.05
Gal3S6S(b1-4)GlcNAc6S
  glycan array binding signal (z-score): 0.919
Gal4S(b1-4)GlcNAc
  glycan array binding signal (z-score): -0.333
Gal4S6S(b1-4)GlcNAc
  glycan array binding signal (z-score): -0.444
Gal6P(b1-4)GlcNAc
  glycan array binding signal (z-score): -0.17
Gal6S(b1-3)GlcNAc
  glycan array binding signal (z-score): 0.589
Gal6S(b1-3)GlcNAc6S
  glycan array binding signal (z-score): -0.282
Gal6S(b1-4)Glc
  glycan array binding signal (z-score): 0.597
Gal6S(b1-4)Glc6S
  glycan array binding signal (z-score): 2.51
Gal6S(b1-4)GlcNAc
  glycan array binding signal (z-score): 0.188
Gal6S(b1-4)GlcNAc6S
  glycan array binding signal (z-score): -0.404
GalNAc(a1-3)Gal
  glycan array binding signal (z-score): -0.091
GalNAc(a1-3)GalNAc
  glycan array binding signal (z-score): -0.594
[16]
  glycan array binding signal (z-score): -0.41
